Measurements from PubChem BioAssay AID1508624 (National Center for Advancing Translational Sciences (NCATS), 2021).
About 120 (0.25%) of roughly 48,000 compounds were called active. Roughly 4% stayed inconclusive and do not appear here. Calls come from the whole dose curve; as a rule, active = well fitted activation curve with a large enough effect; inconclusive = small, poorly fitted or top-dose-only effect, or another doubt; inactive = no such curve, though single readings can be large or run the other way. This is one part of the list.

Test: Primary qHTS for Identification of Small Molecule Activators of Huntingtin-Antisense Promoter Activity; note: nearly all actives have a fitted effect of over 55% in size
Settings: HEK293 HTT-AS promoter firefly luciferase reporter, 24 h; series mostly up to 57.5 µM; activity change, positive = activation: at the top concentration
Summary of the method: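 Quantitative HTS used concentration series of up to 57.5 uM final on HEK293 luciferase reporter cells, 24 h at 37 degrees C. Readout was Dual-Glo firefly luminescence.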

Activity change, positive = activation, inactive:
Cc1ccc(S(=O)(=O)c2cn(CC(=O)Nc3cccc(C)c3)c3cc4c(cc3c2=O)OCO4)cc1 -1.56%
CC1CCC(C(=O)NC(C(=O)OCC(=O)c2ccc(Br)cc2)C(C)C)CC1 (configuration not stated) -20.6%
Cc1ccc(CNS(=O)(=O)c2cc3c(cc2Cl)NC(=O)CO3)o1 -3.67%
Cc1ccc(/C=C/c2onc(C)c2S(=O)(=O)N2CCC(C(=O)Nc3ccc(Br)c(C)c3)CC2)cc1 -18%
CCC(CC)C(=O)Nc1cc(-c2ccccc2F)nn1-c1ccccc1 -8.94%
CNS(=O)(=O)c1cn(CC(=O)Nc2ccc(OC)cc2OC)cc1S(=O)(=O)NC -2.35%
Cc1ccccc1/C=C(\C#N)c1nc(-c2ccc(Cl)cc2)cs1 27.7%
Cc1csc2nc(-c3ccc(NS(=O)(=O)c4cc(F)ccc4F)cc3)cn12 -33.5%
Cc1ccc(CNC(=O)c2nnc(Cc3ccc(Cl)cc3)o2)cc1 -7.02%
CN(C(=O)c1ccc2c(Cl)c3c(nc2c1)CCC3)c1ccccc1F 27.8%
COc1ccccc1C(=O)Nc1ccc(C(=O)OCc2cc(=O)n3nc(C)sc3n2)cc1 -50.6%
CCN(CC)C(=O)Cn1c(=O)n(-c2ccccc2)c(=O)c2c3c(sc21)CCC3 -2.46%
COc1ccc(-c2c(C)c3ccc(O)c(CN4CCCC4)c3oc2=O)cc1OC -5.96%
CN1CCC(=C2c3ccccc3Sc3ccccc32)CC1 -18.6%
COc1ccc(OCc2nc(-c3ccc(-n4cccc4)cc3)no2)cc1 -6.75%
Cc1cc(C)n(-c2nc(C)c(C)c(=O)n2CC(=O)Nc2ccc(OC(F)(F)F)cc2)n1 -28.5%
Cc1cccc(NC(=O)c2cc(S(=O)(=O)N3CCCCCC3)cn2C)c1C -19.8%
Cc1ccc(NC(=O)Cn2cc(C(=O)C3CC3)c3ccccc32)cc1C -5.22%
CCc1ccc(CNC(=O)C2CCCN(S(=O)(=O)c3ccc4c(ccn4C)c3)C2)cc1 (configuration not stated) -29.2%
COc1ccc(CNC(=O)CCc2nc(-c3ccc(OC)cc3)no2)cc1 17.6%
Cc1cc(C)c2c(n1)sc1c(=O)n(-c3ccccc3C(F)(F)F)nnc12 -8.27%
CCSc1nc2c([nH]c3ccccc32)c(=O)n1-c1ccc(F)cc1 -28.7%
CCCCOc1ccc(CNC(=O)c2ccc3c(c2)N(C)C(=O)C2CCCCN32)cc1 (configuration not stated) -20.4%
Cc1ccc(OCCSc2nc3ccc(NC(=O)c4ccc(F)cc4)cc3s2)cc1 -3.44%
CCOC(=O)C(CC)Sc1c(CC)cnc2c1c(=O)n(C)c(=O)n2C (configuration not stated) -12.5%
Cc1cccc(C(C)C)c1NC(=O)C(NS(=O)(=O)c1cccc2nsnc12)c1ccccc1 (configuration not stated) -8.73%
Nc1c2ccccc2nc2ccccc12 -35.8%
O=C(NCc1ccccc1)c1cccn1-c1nnc(N2CCCC2)s1 2.01%
CC(=O)N1c2ccccc2C(C)(c2ccc(C)cc2)CC1(C)C (configuration not stated) -12.7%
O=C(O)C=Cc1ccc(O)c(O)c1 -9.07%
CN1C(=O)c2ccccc2Sc2ccc(NC(=O)N3CCN(c4ccccc4)CC3)cc21 -61.8%
COc1ccc(-n2nnnc2C2CCN(S(=O)(=O)c3ccc(C)cc3)CC2)cc1 -36.8%
COc1cc2c(cc1OC)C(COc1ccc3c(C)cc(=O)oc3c1)N(C(=O)c1ccccc1C)CC2 (configuration not stated) -1.68%
COCCn1c(=O)[nH]c2cc(C(=O)N3CCN(c4ccccc4)CC3)ccc2c1=O -14.8%
CC(=O)N1CCc2cc(S(=O)(=O)NC(Cc3ccccc3)C(=O)Nc3cc(C)ccc3C)ccc21 (configuration not stated) -0.76%
CCOc1ccc(CNC(=O)c2nn(-c3ccc(OC)cc3)c(=O)c3c2c2ccccc2n3C)cc1 3.22%
NC(=O)CSc1ncc2c(n1)-c1ccccc1N(Cc1ccc(F)cc1)S2(=O)=O 20.4%
CCOc1ccc(C(=O)Nc2ccc3nc(SCC(=O)N4CCc5ccccc54)sc3c2)cc1 -17.6%
CC1=C(c2ccc(C)cc2)S(=O)(=O)N(Cc2ccc(C(=O)Nc3ccc(C)c(F)c3)cc2)C1=O -31.7%
Cc1ccc(-c2ccc(CCC(=O)O)n2-c2ccc(C(N)=O)cc2)cc1 -4.14%
Cc1ccc(CNC(=O)c2ccc(Cn3c(=O)c4ccccc4n(CC(=O)Nc4c(C)cc(C)cc4C)c3=O)cc2)cc1 -21.6%
O=C(NCC(c1cccs1)S(=O)(=O)c1cccs1)c1cccc(F)c1 (configuration not stated) -23.9%
c1cnc(N2CCN(c3ncc4c(n3)CCNC4)CC2)nc1 5.84%
COc1ccc(OC)c(-n2nnc(-c3nc(-c4cc(OC)c(OC)c(OC)c4)no3)c2C)c1 -9.93%
COc1ccc(-c2nc3ccccc3n3c(-c4ccccc4)c4c(=O)n(C)c(=O)n(C)c4c23)cc1OC -2.39% [at 11.5 µM, percent change from vehicle, -100% = no light]
O=c1oc2c3c(ccc2c2ccccc12)OCN(Cc1ccc(Cl)cc1)C3 -12.8%
Cc1ccc(=O)n(-c2ccccc2)c1 -3.65%
Cc1cc2c(cc1NS(=O)(=O)c1cccc(C#N)c1)n(C)c(=O)c(=O)n2C -10.3%
CCc1cccc(C)c1NC(=O)Cn1nnc(-c2nc(-c3ccccc3F)no2)c1N -4.73%
Cn1cc(S(=O)(=O)N2CCCCCC2)cc1C(=O)Nc1ccc(Cl)c(C(F)(F)F)c1 -11.2%
COc1ccc(NS(=O)(=O)c2cc3c(cc2C)N(C(C)=O)CCO3)cc1 -21.6%
CC1=Nc2cc(C(=O)N3CCC(C)CC3)ccc2Sc2ccc(Cl)cc21 -30.1%
O=C1c2ccccc2CCc2ccccc21 12.9%
CCc1ccc(NC(=O)C2CCCN2S(=O)(=O)c2ccc3c(c2)CCCC(=O)N3)cc1 (configuration not stated) -19.3%
COc1ccc(CCNC(=O)c2ccc(Cn3c(=O)c4ccccc4n(Cc4cccc(F)c4)c3=O)cc2)cc1OC -34%
COc1ccc(-c2n[nH]c3c2cnc2ccc(F)cc23)cc1 26.1%
CCCSc1nc(-c2ccccc2)[nH]c1S(=O)(=O)c1ccc(C)cc1 -25.5%
Cc1ccc(-c2c(C(=O)NCCc3ccccc3)oc(=O)c3ccccc23)cc1 -33.9%
COc1ccccc1NC(=O)c1cnc(SCC(=O)N2CCOCC2)n(C)c1=O 16.5%
COc1ccc2c(c1)c1c(c(=O)n(Cc3ccccc3)c(=O)n1Cc1cccc(Cl)c1)n2C -4.06%
Cc1cc(C)c2oc(-c3ccc(Cl)c(NC(=O)c4cccs4)c3)nc2c1 -6.54%
CCn1cc(C(=O)NCCCOC)c(=O)c2cc(S(=O)(=O)N3CCc4ccccc4C3)ccc21 -5.93%
CCOC(=O)C1CCCN(CC(=O)Nc2cc(C)c3c(=O)oc4ccccc4c3n2)C1 (configuration not stated) 9.78%
Cc1cc(C)cc(NC(=O)C2CCN(S(=O)(=O)c3cn(C)cn3)CC2)c1 5.69%
O=c1oc2ccc3ccccc3c2cc1-c1nnc(Nc2ccccc2F)s1 -0.513%
Cc1ccc(-c2nc3ncccn3c2Nc2ccc3c(c2)OCCO3)cc1 -1.05%
CCc1ccc(CNc2ccc3c(c2)ncn3C(C)(C)C)cc1 19%
O=C(CCS(=O)(=O)c1ccc(Br)cc1)Nc1ccc(F)cc1F -13.6%
Cc1cccc(NS(=O)(=O)c2ccc3c(c2)CC(C)N3C(=O)C2CCC2)c1C (configuration not stated) -30.7%
COc1cccc2c1cc1c(=O)n(CC(=O)N3CCN(c4ccccc4)CC3)nc(C)n12 -3.35%
CCOc1ccc(N2CC(c3nc4ccccc4n3CCOc3ccccc3OC)CC2=O)cc1 (configuration not stated) -27.1%
O=C1CC(c2nc(-c3ccccc3)no2)CN1c1ccccc1 (configuration not stated) 9.44%
COC(=O)c1nc(Cl)c(Cl)nc1N -37.6%
CCc1nc2ccc(C(=O)NCc3cc(OC)ccc3OC)cc2nc1CC -13.8%
CCOc1ccc(CCNC(=O)CS(=O)(=O)Cc2nc(-c3ccc(OC)cc3)oc2C)cc1 -25%
COc1ccc(Cn2c(=O)n(Cc3ccco3)c(=O)c3oc4ccccc4c32)cc1 -3.84%
Cc1cccc2sc(N(CCN(C)C)C(=O)c3ccc4c(c3)OCCO4)nc12 -12.4%
COc1ccc(-c2nc(CSCC(=O)N3CCN(c4cc(Cl)ccc4C)CC3)c(C)o2)cc1 -54.7%
CCN(CC)c1ccc(NC(=O)c2cnn(-c3ccccc3)c2-n2cccc2)c(C)c1 -50.2%
Cc1ccc(Cn2c(C)c3cnn(CC(=O)NCc4ccccc4)c(=O)c3c2C)cc1 -40.2%
CC(=O)N1CCc2cc(S(=O)(=O)CCC(=O)Nc3ccc(C)cc3Br)ccc21 -19.8%
Cc1cccc(NC(=O)CSc2nc(-c3ccccc3)cc(=O)[nH]2)c1C -1.27%
Cc1ccc(C(C)C)c(OCC(O)CN2CCN(c3ccccc3F)CC2)c1 (configuration not stated) -25.2%
Cc1ccc(NC(=O)CCC(=O)N2Cc3ccccc3Oc3ncccc32)c(C)c1 -14%
CCOc1ccc(CCNC(=O)CN2C(=O)COc3ccc(S(=O)(=O)N4CCCC4)cc32)cc1 -20.2%
CCn1c(=N)c(C(=O)NCc2ccccc2)cc2c(=O)n3cccc(C)c3nc21 -4.24%
COc1ccc(-n2nnnc2C2CCN(S(=O)(=O)c3ccc(NC(C)=O)cc3)CC2)cc1 -38.7%
Cc1cccc(-c2nc(C)c(CCNC(=O)C(=O)Nc3ccccc3C#N)s2)c1 -12%
CC(C)c1ccc(C2NC(=O)c3n[nH]c(-c4cccs4)c32)cc1 (configuration not stated) -37%
COc1ccc(Cl)cc1S(=O)(=O)NCc1ccc2c(c1)CCN2C(=O)c1cccc(C)c1 -37.1%
CCOC(=O)c1ccc(N2C(=O)c3n[nH]c(-c4ccco4)c3C2c2cccc(OC)c2)cc1 (configuration not stated) -55.5%
COC(=O)c1ccc2c(=O)n(CCCCCC(=O)NCCc3ccc(Cl)cc3)c(=O)[nH]c2c1 6.52%
Cc1oc(-c2ccc(C(=O)NCc3cccc(F)c3)cc2)nc1COc1ccccc1 -11.3%
N#Cc1c(C(F)(F)F)cc(-c2ccc(F)cc2)nc1SCC(=O)Nc1ccccc1 -16.8%
CCn1c(C(=O)N2CCC(C(=O)NCCc3ccc(C)cc3)CC2)cc2sccc21 -30%
Cc1ccc(Cn2ccnc2SCC(=O)NCc2ccccc2Cl)cc1 4.56%
Cc1ccccc1NC(=O)CSc1nc2ccccc2c2nc(CCn3cncc3C)nn12 -0.485%
